Laboratory results published in paper PMC13083723 (Patterns, 2026).
Among all 5,400 compounds or so, about 190 (3.5%) showed an effect of 50% or more. This is one part of the list.

test system: Vero-E6; assay: primary screen, phospholipidosis by LipidTOX staining; higher = more effect of the substance; settings: 10 µM
In short: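 Drug-induced phospholipidosis detected with HCS LipidTOX Red reagent in Vero-E6 cells. Compounds tested at 10 μM, with amiodarone (10 μM) as positive control and DMSO (0.1 v/v %) as vehicle.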

SMILES	result_ITMP
CC(C)COc1ccc(CNC(=O)N(Cc2ccc(F)cc2)C2CCN(C)CC2)cc1	48.6%
CC(=O)CC(c1ccccc1)c1c(O)c2ccccc2oc1=O (centres unmarked)	-1.2%
c1coc(CNc2ncnc3nc[nH]c23)c1	-4.92%
Nc1nc(S)c2nc[nH]c2n1	26.6%
C[C@H]1Oc2cc(cnc2N)-c2c(nn(C)c2C#N)CN(C)C(=O)c2ccc(F)cc21 [R4A_0001637_001 / SPE_K99879819]	-2.56%
CC(CNS(=O)(=O)C(C)C)c1ccc(-c2ccc(C#N)cc2)cc1 (centres unmarked)	2.07%
O=C(c1ccc(Cl)o1)N1CC2CNCC2C1 (centres unmarked)	0.39%
O=C(Nc1ccncc1)C(=O)c1cn(Cc2ccc(Cl)cc2)c2ccccc12	0.55%
CCCCCCCCCCCC(=O)OCC(O)CO (centres unmarked)	-0.78%
Nc1nc(N)c2nc(CNc3ccc(C(=O)N[C@@H](CCC(=O)O)C(=O)O)cc3)cnc2n1	-13%
N[C@@H](CSCC(=O)O)C(=O)O	-3.83%
O=C(O)Cc1ccc(OCCNC[C@H](O)c2ccccc2)cc1	-2.13%
OCCc1ccc(OCCn2ccnc2)cc1	17.7%
CC(C)C[C@@H](C(=O)N[C@@H](Cc1ccc(OCc2ccccc2)cc1)C(=O)NC(C)(C)C)N(C)Cc1ccc(C(C)(C)C)cc1	-1.65%
CCCCN(Cc1ccc(C(=O)NO)cc1)C(=O)Nc1ccccc1	-9.88%
COC(=O)N[C@H](C(=O)N1CCC[C@H]1c1ncc(-c2ccc(-c3ccc(-c4cnc([C@@H]5CCCN5C(=O)[C@@H](NC(=O)OC)C(C)C)[nH]4)cc3)cc2)[nH]1)C(C)C	1.1%
CCCCCN(C)CCC(O)(P(=O)([O-])O)P(=O)(O)O	3.23%
CC(C)(S)C(=O)N[C@@H](CS)C(=O)O	-4.67%
CC1=C(C(=O)Nc2cc3cn[nH]c3cc2F)C(c2ccc(C(F)(F)F)cc2)CC(=O)N1 (centres unmarked)	4.82%
CNC(=O)c1ccccc1Nc1nc(Nc2ccc(N3CCOCC3)cc2OC)ncc1Cl	3.78%
NCC(CC(=O)O)c1ccccc1 (centres unmarked)	3.25%

SMILES	result_ITMP
O=C(O)CCCNC(=O)c1cccnc1	-2.5%
NCC(O)(CS(=O)(=O)O)c1ccc(Cl)cc1 (centres unmarked)	-4.58%
COc1cc(/C=C/c2ccc(O)cc2)cc(OC)c1	11.9%
CC[C@H](NC(=O)c1c(C)c(-c2ccccc2)nc2ccccc12)c1ccccc1	-1.6%
CCOC(=O)c1ncn2c1CN(C)C(=O)c1cc(F)ccc1-2	4.71%
O=C(COc1ccc(Cl)cc1)N[C@H]1CC[C@H](NC(=O)COc2ccc(Cl)cc2)CC1	-2.2%
Cc1cc(C)c2c(c1)[C@@H](N(Cc1cc(C(F)(F)F)cc(C(F)(F)F)c1)c1nnn(C)n1)CCCN2C[C@H]1CC[C@H](C(=O)O)CC1	-10.9%
Cn1c(C#N)ccc1-c1ccc2c(c1)C(C)(C)OC(=S)N2	-1.41%
c1cc2c(cc1[C@H]1OC[C@H]3[C@@H]1CO[C@@H]3c1ccc3c(c1)OCO3)OCO2	-6.11%
CCOc1ccc(Cc2cc([C@]34OC[C@](CO)(O3)[C@@H](O)[C@H](O)[C@H]4O)ccc2Cl)cc1	-0.06%
COc1cc(C(C)=O)ccc1OCCCN1CCC(c2noc3cc(F)ccc23)CC1	-0.01%
CCCC1O[C@@H]2C[C@H]3[C@@H]4CCC5=CC(=O)C=C[C@]5(C)[C@H]4[C@@H](O)C[C@]3(C)[C@]2(C(=O)CO)O1 (some centres unmarked)	-5.56%
CNC(=O)[C@@H](c1ccccc1)N1CCc2cc(OC)c(OC)cc2[C@@H]1CCc1ccc(C(F)(F)F)cc1	1.25%
N=C(N)NC(=O)c1cnccn1	-1.44%
CC(=O)NC(Cc1ccc(O)cc1)C(=O)O (centres unmarked)	-5.32%
COc1ccc(/C=C\c2cc(OC)c(OC)c(OC)c2)cc1O	8.42%
CN1c2c(oc(=O)n(-c3ccccn3)c2=O)-c2ccccc2S1(=O)=O	-0.47%
Cc1cccn2c(=O)c(/C=C(\C#N)c3nc4ccccc4s3)c(Oc3ccc(F)cc3)nc12	-3.48%
COc1ccc(-c2sc(NC(=O)C(C)(C)C)nc2C)cc1S(=O)(=O)Nc1ccc(O)cc1	9.51%
c1cc(-c2cnn3cc(-c4ccc(N5CCNCC5)cc4)cnc23)c2cccnc2c1	-14.8%
